± gives the standard deviation of the averaged measurements. Some of the results follow.
System: PfAP2-G AP2 domain (GST-tagged)
Experiment: gcPBM binding intensity (ln(normalized median fluorescence intensity)); higher = stronger DNA binding
In short: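 Binding intensity values are the highest Masliner-normalised natural-log median intensity among replicate spots of either probe orientation. The binding step lasted 1 h in 1× PBS with 1% milk, 0.2 mg/ml BSA, 0.5% salmon testes DNA and 0.03% Triton X-100, using GST-tagged P. falciparum DNA-binding domains expressed in E. coli on an Agilent 4 × 180k array of primer-extended double-stranded 36-bp intergenic genomic probes plus negative controls. Alexa488 anti-GST antibody and a 488 nm scan detected bound protein.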

“GTTTCAAAATTAAACACACACAAAAAAAAAAAAAAA [CACACA_site2680]” and “TATTTAAAAGCATATACACACAACTGGAATGAAAAG [CACACA_site6128]” are within error of each other in “gcPBM binding intensity (ln)” value: 9.91 ± 0.4 for the first, 10.3 ± 0.23 for the second.

Compared with “ACATTATATCTAAGTACACACATTAATTTTTTTTTT [CACACA_site7850]”, “CTATAACCTCTGTTCACACATATATCATAATTTACA [CACACA_site5446]” is lower in “gcPBM binding intensity (ln)” value: 11.4 ± 0.85 for the first, 10.2 ± 0.16 for the second.

Going from “TTTATTTTGATTTAATGTACAAATAGTAAAACAAAA [XGTACX_site4789]” to “TTTTCAAAAATATACACACACATAAATATAGGTATA [CACACA_site6506]”, the “gcPBM binding intensity (ln)” value falls from 10.9 ± 0.49 to 9.835 ± 0.035.

Compared with “ATAAAACAAAAATATAAACACACATACATTGGTTTT [CACACA_site8809]”, “TTGATTTACTATAGATGTACGTAAAATATAAATAAA [XGTACX_site8256]” is higher in “gcPBM binding intensity (ln)” value: 9.83 ± 0.014 for the first, 11.5 ± 0.96 for the second.

Compared with “AATTTAAAAGAAAAAGAAAAATAATAAACAGAAGCA [XGTACX_negctrl_site503]”, “TGGGAAAATAATATTTATTTTATATATAAATATATA [CACACA_negctrl_site121]” is lower in “gcPBM binding intensity (ln)” value: 9.805 ± 0.049 for the first, 9.47 ± 0.12 for the second.

“AATAAAACCCCGAAATCACACATTAAATGAAAAATA [CACACA_site4732]” and “AAAGCACCCATGCACACACACAAAGGAAAAGAAAAA [CACACA_site6249]” are within error of each other in “gcPBM binding intensity (ln)” value: 10 ± 0.057 for the first, 10.3 ± 0.47 for the second.

“ATAAATGATAAAATTGCATGTGAATGTGAAAATATT [TGCATGCA_site251]” and “AAAATACTAGATAGGGGAAAAAAAAAAAAAAAAAAA [CACACA_negctrl_site1732]” are within error of each other in “gcPBM binding intensity (ln)” value: 10 ± 0.11 for the first, 9.78 ± 0.42 for the second.

“TATTGTAATATTAGCACACATTACCTCACTACAAAT [CACACA_site5419]” and “AACATGAAAATATATGCATTTGTATATATATATATA [TGCATGCA_negctrl_site16]” are within error of each other in “gcPBM binding intensity (ln)” value: 10.3 ± 0.18 for the first, 9.95 ± 0.45 for the second.

First: TTGTTTTTCTTTGAATGTACTTAATGATTTCCAATT [XGTACX_site2499]
Second: AATGGAAAAATAGGCACACACACATATATACATATA [CACACA_site1298]
The “gcPBM binding intensity (ln)” value of the first is higher: 11.1 ± 0.64 for the first, 9.95 ± 0.11 for the second.

First: TCCATATATTTTAAAAGTACACATAAAAATTATTTA [XGTACX_site8127]
Second: ATATAAATAAAATATACACACATACTGTTCATTTAA [CACACA_site7880]
The “gcPBM binding intensity (ln)” value of the first is higher: 11.4 ± 0.99 for the first, 9.86 ± 0.11 for the second.

Compared with “TTTTTTTTTTATTTTGCACACTTCTAATTTAGTTCT [CACACA_site5828]”, “TAAAATAAAACAAACACACACACACGGACACAAAAA [CACACA_site7754]” is higher in “gcPBM binding intensity (ln)” value: 10.2 ± 0.26 for the first, 11.4 ± 0.68 for the second.

“AAAAAAAAAAAAGATTGTACAGAATACTTTTAAAAT [XGTACX_site3576]” and “AAGTTAATGAAAAAATGTACCCAGAGTATTTTAAAA [XGTACX_site2997]” are within error of each other in “gcPBM binding intensity (ln)” value: 10.7 ± 0.4 for the first, 11.2 ± 0.71 for the second.

“ATAAAATATAGATGCACACACATATAGATTTCATAC [CACACA_site7636]” and “TGTATATTTTTTATTACACACTTTTTACTTTTTAGA [CACACA_site3069]” are within error of each other in “gcPBM binding intensity (ln)” value: 9.92 ± 0.085 for the first, 9.975 ± 0.035 for the second.

“TTTTTTAATTGTGATACGTATATTATTTAATGATAA [GTGCAC_negctrl_site704]” and “ATCAAACCATAAAAGAGTACAAAAGGATGATATTTT [XGTACX_site8883]” are within error of each other in “gcPBM binding intensity (ln)” value: 10.5 ± 0.44 for the first, 11.3 ± 0.8 for the second.

“TATTTTAAAGAGAAAACATGCATTATATAGAACATT [TGCATGCA_site328]” and “GATATAATTATATTATGGTGTTTTTGATAGATATTT [GTGCAC_negctrl_site313]” are within error of each other in “gcPBM binding intensity (ln)” value: 9.8 ± 0.071 for the first, 9.785 ± 0.021 for the second.

Going from “AGTATATACACGTGCGTGCACAGATATTCTTTTTTT [GTGCAC_site9398]” to “ATGTTTTGCATATATTATATATTTATTTATTTTTTT [CACACA_negctrl_site729]”, the “gcPBM binding intensity (ln)” value falls from 10.4 ± 0.16 to 9.845 ± 0.049.

“AGTGGACTTTTTTTTTTTTTTTTTTTTTTTTTATTA [CACACA_negctrl_site547]” and “AGTAGTCTGGAGAAGAGTACATAGTATCTGGTAACC [XGTACX_site2043]” are the same in “gcPBM binding intensity (ln)” value: 11.3 ± 0.77 for the first, 11.3 ± 0.81 for the second.

Compared with “ATGGAAATATATACATGTACATAAATATATATATAT [XGTACX_site8391]”, “TATTTATTGTGATACTTATATTATTTTATGATTAAA [CACACA_negctrl_site901]” is lower in “gcPBM binding intensity (ln)” value: 11.2 ± 0.61 for the first, 10.2 ± 0.19 for the second.

“AGAGAGATGACAAAAAGATGAATAACGTTAAGGGAT [XGTACX_negctrl_site120]” and “ATATACTATGATAATACATGCGATAATACATTTTTA [TGCATGCA_site387]” are within error of each other in “gcPBM binding intensity (ln)” value: 10.11 ± 0.049 for the first, 10 ± 0.2 for the second.

“AAGTATGTCGACTGTTGTACTTTTATCATTTATTAT [XGTACX_site1129]” and “GTATGGCGTATCATATGTACTAAAAAAAAATAAAAA [XGTACX_site5101]” are the same in “gcPBM binding intensity (ln)” value: 11.3 ± 0.71 for the first, 11.3 ± 0.82 for the second.

“TATTTATCATCATATTGTACATTATATATATAAAAT [XGTACX_site6675]” and “AATAAAAAAATGTCACGTACTTATTTTATTAAACCT [XGTACX_site3031]” are within error of each other in “gcPBM binding intensity (ln)” value: 10.7 ± 0.39 for the first, 11.2 ± 0.8 for the second.

“TTATATGCTCAATGTTGTACATGTAGATATATATAT [XGTACX_site8211]” was tested, and the “gcPBM binding intensity (ln)” value was 11.2 ± 0.8.

Source: the supplement of paper PMC11417369
